Among the data in paper PMC12820563, “FoxP3 forms a head-to-head dimer in vivo and stabilizes its multimerization on adjacent microsatellites” are binding signal values, retold here.

This is one part of the list.

The target of the test is T1, MBP-FoxP1dN (Mus musculus, UniProt P58462 326-579).
T1 sequence: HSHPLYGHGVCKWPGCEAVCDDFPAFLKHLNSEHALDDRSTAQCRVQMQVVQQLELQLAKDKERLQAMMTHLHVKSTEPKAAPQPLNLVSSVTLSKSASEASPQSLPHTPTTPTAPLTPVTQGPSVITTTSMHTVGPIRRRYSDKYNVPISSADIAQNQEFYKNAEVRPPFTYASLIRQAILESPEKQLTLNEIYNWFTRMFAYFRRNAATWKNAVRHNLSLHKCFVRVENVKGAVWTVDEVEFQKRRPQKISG
The experiment in a line: PD-seq (MBP pull-down with sequencing); 20 mM Tris-HCl pH 7.5, 100 mM NaCl, 1.5 mM MgCl2, 0.4 uM protein, 0.1 uM dsDNA library, 30 min, room temperature, amylose pull-down; high values mean tight binding. As to conditions: protein: recombinant; tags: His6-MBP; chain copies: 2; dsDNA, one strand shown. The essentials:
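Binding is given as reads-per-million enrichment, pull-down over input, with replicates pooled. The bait was an N-terminus-lacking mouse FoxP3 or FoxP1 fragment with a His6-MBP tag, expressed in E. coli and used at 0.4 µM with 0.1 µM Klenow-filled degenerate double-stranded DNA library for 30 min at room temperature in Tris pH 7.5 buffer with NaCl and MgCl2. Amylose resin pull-down with three washes was followed by proteinase K release, PCR barcoding and Illumina sequencing.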
Turning to “GATGATTGTTCTCCCAGCTGATGAATTCGCCGGTTCGAGTAAACAAATTTTCCTAATCTTTCTGTTCAAGCGCCATCTAC”, the binding signal is 0.778 RPM ratio (pull-down/input). On to “GATGATTGTTCTCCCAGCTGATGAATTTGTGGGGTCGAGTAAACAAATTTTCCTAATCTTTCTGTTCAAGCGCCATCTAC”, for which the binding signal is 0.973 RPM ratio (pull-down/input).

With “GATGATTGTTCTCCCAGCTGATGAATTGAGTGTATCGAGTAAACAAATTTTCCTAATCTTTCTGTTCAAGCGCCATCTAC”, the binding signal was 1.16 RPM ratio (pull-down/input). The figure for “GATGATTGTTCTCCCAGCTGATGAATTCCGACGGTCGAGTAAACAAATTTTCCTAATCTTTCTGTTCAAGCGCCATCTAC” is 0.765 RPM ratio (pull-down/input).

Regarding “GATGATTGTTCTCCCAGCTGATGAATTAATCCCATCGAGTAAACAAATTTTCCTAATCTTTCTGTTCAAGCGCCATCTAC”, the binding signal is 0.897 RPM ratio (pull-down/input). The figure for “GATGATTGTTCTCCCAGCTGATGAATTGTCTGCATCGAGTAAACAAATTTTCCTAATCTTTCTGTTCAAGCGCCATCTAC” is 1.24 RPM ratio (pull-down/input); for “GATGATTGTTCTCCCAGCTGATGAATTCCTCGTCTCGAGTAAACAAATTTTCCTAATCTTTCTGTTCAAGCGCCATCTAC” it is 0.759 RPM ratio (pull-down/input); for “GATGATTGTTCTCCCAGCTGATGAATTATCCATCTCGAGTAAACAAATTTTCCTAATCTTTCTGTTCAAGCGCCATCTAC” it is 0.978 RPM ratio (pull-down/input).

“GATGATTGTTCTCCCAGCTGATGAATTTATAGGTTCGAGTAAACAAATTTTCCTAATCTTTCTGTTCAAGCGCCATCTAC”: the binding signal is 0.975 RPM ratio (pull-down/input). For “GATGATTGTTCTCCCAGCTGATGAATTGAAAATATCGAGTAAACAAATTTTCCTAATCTTTCTGTTCAAGCGCCATCTAC”, the binding signal was 1.26 RPM ratio (pull-down/input). The figure for “GATGATTGTTCTCCCAGCTGATGAATTTTTTACCTCGAGTAAACAAATTTTCCTAATCTTTCTGTTCAAGCGCCATCTAC” is 0.943 RPM ratio (pull-down/input).

With “GATGATTGTTCTCCCAGCTGATGAATTGCATTCTTCGAGTAAACAAATTTTCCTAATCTTTCTGTTCAAGCGCCATCTAC”, the binding signal is 1.61 RPM ratio (pull-down/input).

For “GATGATTGTTCTCCCAGCTGATGAATTTCGAACTTCGAGTAAACAAATTTTCCTAATCTTTCTGTTCAAGCGCCATCTAC”, the binding signal is 0.785 RPM ratio (pull-down/input). As for “GATGATTGTTCTCCCAGCTGATGAATTCAACTCCTCGAGTAAACAAATTTTCCTAATCTTTCTGTTCAAGCGCCATCTAC”, the binding signal is 0.73 RPM ratio (pull-down/input). The figure for “GATGATTGTTCTCCCAGCTGATGAATTCTGACCTTCGAGTAAACAAATTTTCCTAATCTTTCTGTTCAAGCGCCATCTAC” is 0.83 RPM ratio (pull-down/input); for “GATGATTGTTCTCCCAGCTGATGAATTAGCGCGATCGAGTAAACAAATTTTCCTAATCTTTCTGTTCAAGCGCCATCTAC” it is 0.894 RPM ratio (pull-down/input).

As to “GATGATTGTTCTCCCAGCTGATGAATTAGGTGTTTCGAGTAAACAAATTTTCCTAATCTTTCTGTTCAAGCGCCATCTAC”, the binding signal is 1.09 RPM ratio (pull-down/input). In the case of “GATGATTGTTCTCCCAGCTGATGAATTGACGTCCTCGAGTAAACAAATTTTCCTAATCTTTCTGTTCAAGCGCCATCTAC” it was 1.06 RPM ratio (pull-down/input); in that of “GATGATTGTTCTCCCAGCTGATGAATTGGCCTGGTCGAGTAAACAAATTTTCCTAATCTTTCTGTTCAAGCGCCATCTAC”, 0.77 RPM ratio (pull-down/input). In the case of “GATGATTGTTCTCCCAGCTGATGAATTGCATCTCTCGAGTAAACAAATTTTCCTAATCTTTCTGTTCAAGCGCCATCTAC” it was 1.54 RPM ratio (pull-down/input); in that of “GATGATTGTTCTCCCAGCTGATGAATTAAAAATCTCGAGTAAACAAATTTTCCTAATCTTTCTGTTCAAGCGCCATCTAC”, 0.927 RPM ratio (pull-down/input). Consider “GATGATTGTTCTCCCAGCTGATGAATTCCTTTGCTCGAGTAAACAAATTTTCCTAATCTTTCTGTTCAAGCGCCATCTAC”, for which the binding signal is 0.796 RPM ratio (pull-down/input). In the case of “GATGATTGTTCTCCCAGCTGATGAATTCTCATCCTCGAGTAAACAAATTTTCCTAATCTTTCTGTTCAAGCGCCATCTAC” it was 0.81 RPM ratio (pull-down/input); in that of “GATGATTGTTCTCCCAGCTGATGAATTTTGCGACTCGAGTAAACAAATTTTCCTAATCTTTCTGTTCAAGCGCCATCTAC”, 0.897 RPM ratio (pull-down/input).

On to “GATGATTGTTCTCCCAGCTGATGAATTGAAGAGATCGAGTAAACAAATTTTCCTAATCTTTCTGTTCAAGCGCCATCTAC”, for which the binding signal is 0.804 RPM ratio (pull-down/input). In the case of “GATGATTGTTCTCCCAGCTGATGAATTAAATTCATCGAGTAAACAAATTTTCCTAATCTTTCTGTTCAAGCGCCATCTAC” it was 0.922 RPM ratio (pull-down/input). “GATGATTGTTCTCCCAGCTGATGAATTAGGGACATCGAGTAAACAAATTTTCCTAATCTTTCTGTTCAAGCGCCATCTAC”: the binding signal is 1.04 RPM ratio (pull-down/input). As for “GATGATTGTTCTCCCAGCTGATGAATTCGTCCGGTCGAGTAAACAAATTTTCCTAATCTTTCTGTTCAAGCGCCATCTAC”, the binding signal was 0.701 RPM ratio (pull-down/input). For “GATGATTGTTCTCCCAGCTGATGAATTTTATCCGTCGAGTAAACAAATTTTCCTAATCTTTCTGTTCAAGCGCCATCTAC”, the binding signal was 0.86 RPM ratio (pull-down/input). The figure for “GATGATTGTTCTCCCAGCTGATGAATTCATCTCATCGAGTAAACAAATTTTCCTAATCTTTCTGTTCAAGCGCCATCTAC” is 0.859 RPM ratio (pull-down/input); for “GATGATTGTTCTCCCAGCTGATGAATTTGATCTTTCGAGTAAACAAATTTTCCTAATCTTTCTGTTCAAGCGCCATCTAC” it is 0.84 RPM ratio (pull-down/input).
